# This is one part of the list.
# B1: Epa23 (Candida glabrata) (protein)
# chain: MGSSHHHHHHSSGLVPRGSHMIPNPFEGTINNFPSGCSPNHGLYNRGLTMELYNYSYIHPQSIQSYFNTSTLKKMEKGQCWDPSYLDVNYPRTGYKTHNRFAKVNGIDGILDFEFNPTRSCVPSKGQLPQNYNYPLQFTLSNFTMLLYGYFKPKVTAKHTFTIFADDLLFLNFGAGNAFDCCQQQDTIDDFGNYQAYALWGSDTQQNTLTVNLDANIYYPIRMFYNNRDFKGALNMYFTTDESNTKINDFSGYLFNIPDSSEGCPAHISYETECGNVSG
# Tests used:
# Test in all cases: glycan array binding signal (z-score within array); higher = stronger binding
# Settings in all cases: glycan notation: IUPAC condensed, linker removed
# Neu5Ac(a2-6)Gal = molecular target: Neu5Ac(a2-6)Gal
# In short: (§1)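 From the Consortium for Functional Glycomics database, 3228 arrays were curated, keeping only those whose protein sequence was available. Binding is given as a within-array Z-score averaged across arrays sharing a protein sequence and across linkers. Negative Z-scores can be read as non-binding.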
# [1] = molecular target: Neu5Ac(a2-6)Gal(b1-3)GlcNAc(b1-3)[Gal(b1-4)GlcNAc(b1-6)]Gal(b1-4)Glc
# In short: as §1
# Neu5Ac(a2-6)Gal(b1-4)Glc = molecular target: Neu5Ac(a2-6)Gal(b1-4)Glc
# In short: as §1
# [2] = molecular target: Neu5Ac(a2-6)Gal(b1-4)GlcNAc
# In short: as §1
# [3] = molecular target: Neu5Ac(a2-6)Gal(b1-4)GlcNAc(b1-2)Man
# In short: as §1
# [4] = molecular target: Neu5Ac(a2-6)Gal(b1-4)GlcNAc(b1-2)Man(a1-3)Man(b1-4)GlcNAc(b1-4)GlcNAc
# In short: as §1
# [5] = molecular target: Neu5Ac(a2-6)Gal(b1-4)GlcNAc(b1-2)Man(a1-3)[Gal(b1-4)GlcNAc(b1-2)Man(a1-6)]Man(b1-4)GlcNAc(b1-4)GlcNAc
# In short: as §1
# [6] = molecular target: Neu5Ac(a2-6)Gal(b1-4)GlcNAc(b1-2)Man(a1-3)[GlcNAc(b1-2)Man(a1-6)]Man(b1-4)GlcNAc(b1-4)GlcNAc
# In short: as §1
# [7] = molecular target: Neu5Ac(a2-6)Gal(b1-4)GlcNAc(b1-2)Man(a1-3)[GlcNAc(b1-4)][Neu5Ac(a2-6)Gal(b1-4)GlcNAc(b1-2)Man(a1-6)]Man(b1-4)GlcNAc(b1-4)GlcNAc
# In short: as §1
# [8] = molecular target: Neu5Ac(a2-6)Gal(b1-4)GlcNAc(b1-2)Man(a1-3)[Man(a1-6)]Man(b1-4)GlcNAc(b1-4)GlcNAc
# In short: as §1
# [9] = molecular target: Neu5Ac(a2-6)Gal(b1-4)GlcNAc(b1-2)Man(a1-3)[Neu5Ac(a2-3)Gal(b1-4)GlcNAc(b1-2)Man(a1-6)]Man(b1-4)GlcNAc(b1-4)GlcNAc
# In short: as §1
# [10] = molecular target: Neu5Ac(a2-6)Gal(b1-4)GlcNAc(b1-2)Man(a1-3)[Neu5Ac(a2-6)Gal(b1-4)GlcNAc(b1-2)Man(a1-6)]Man(b1-4)GlcNAc(b1-4)GlcNAc
# In short: as §1
# [11] = molecular target: Neu5Ac(a2-6)Gal(b1-4)GlcNAc(b1-2)Man(a1-3)[Neu5Ac(a2-6)Gal(b1-4)GlcNAc(b1-2)Man(a1-6)]Man(b1-4)GlcNAc(b1-4)[Fuc(a1-6)]GlcNAc
# In short: as §1
# [12] = molecular target: Neu5Ac(a2-6)Gal(b1-4)GlcNAc(b1-2)Man(a1-6)Man(b1-4)GlcNAc(b1-4)GlcNAc
# In short: as §1
# [13] = molecular target: Neu5Ac(a2-6)Gal(b1-4)GlcNAc(b1-2)Man(a1-6)[Gal(b1-4)GlcNAc(b1-2)Man(a1-3)]Man(b1-4)GlcNAc(b1-4)GlcNAc
# In short: as §1
# [14] = molecular target: Neu5Ac(a2-6)Gal(b1-4)GlcNAc(b1-2)Man(a1-6)[GlcNAc(b1-2)Man(a1-3)]Man(b1-4)GlcNAc(b1-4)GlcNAc
# In short: as §1
# [15] = molecular target: Neu5Ac(a2-6)Gal(b1-4)GlcNAc(b1-2)Man(a1-6)[Man(a1-3)]Man(b1-4)GlcNAc(b1-4)GlcNAc
# In short: as §1
# [16] = molecular target: Neu5Ac(a2-6)Gal(b1-4)GlcNAc(b1-2)[Neu5Ac(a2-6)Gal(b1-4)GlcNAc(b1-4)]Man(a1-3)[GlcNAc(b1-4)][Neu5Ac(a2-6)Gal(b1-4)GlcNAc(b1-2)[Neu5Ac(a2-6)Gal(b1-4)GlcNAc(b1-6)]Man(a1-6)]Man(b1-4)GlcNAc(b1-4)GlcNAc
# In short: as §1
# [17] = molecular target: Neu5Ac(a2-6)Gal(b1-4)GlcNAc(b1-2)[Neu5Ac(a2-6)Gal(b1-4)GlcNAc(b1-4)]Man(a1-3)[GlcNAc(b1-4)][Neu5Ac(a2-6)Gal(b1-4)GlcNAc(b1-4)Man(a1-6)]Man(b1-4)GlcNAc(b1-4)GlcNAc
# In short: as §1
# [18] = molecular target: Neu5Ac(a2-6)Gal(b1-4)GlcNAc(b1-2)[Neu5Ac(a2-6)Gal(b1-4)GlcNAc(b1-6)]Man(a1-6)[Neu5Ac(a2-6)Gal(b1-4)GlcNAc(b1-2)Man(a1-3)][GlcNAc(b1-4)]Man(b1-4)GlcNAc(b1-4)GlcNAc
# In short: as §1
# [19] = molecular target: Neu5Ac(a2-6)Gal(b1-4)GlcNAc(b1-3)Gal(b1-3)GlcNAc
# In short: as §1
# [20] = molecular target: Neu5Ac(a2-6)Gal(b1-4)GlcNAc(b1-3)Gal(b1-4)GlcNAc
# In short: as §1
# [21] = molecular target: Neu5Ac(a2-6)Gal(b1-4)GlcNAc(b1-3)Gal(b1-4)GlcNAc(b1-2)Man(a1-3)[Neu5Ac(a2-6)Gal(b1-4)GlcNAc(b1-3)Gal(b1-4)GlcNAc(b1-2)Man(a1-6)]GalNAc
# In short: as §1
# [22] = molecular target: Neu5Ac(a2-6)Gal(b1-4)GlcNAc(b1-3)Gal(b1-4)GlcNAc(b1-3)Gal(b1-4)GlcNAc
# In short: as §1
# [23] = molecular target: Neu5Ac(a2-6)Gal(b1-4)GlcNAc(b1-3)Gal(b1-4)GlcNAc(b1-3)Gal(b1-4)GlcNAc(b1-2)Man(a1-3)[Neu5Ac(a2-6)Gal(b1-4)GlcNAc(b1-3)Gal(b1-4)GlcNAc(b1-3)Gal(b1-4)GlcNAc(b1-2)Man(a1-6)]GalNAc
# In short: as §1
# [24] = molecular target: Neu5Ac(a2-6)Gal(b1-4)GlcNAc(b1-3)Gal(b1-4)GlcNAc(b1-3)GalNAc
# In short: as §1
# [25] = molecular target: Neu5Ac(a2-6)Gal(b1-4)GlcNAc(b1-3)Gal(b1-4)GlcNAc(b1-3)[Neu5Ac(a2-6)Gal(b1-4)GlcNAc(b1-3)Gal(b1-4)GlcNAc(b1-6)]GalNAc
# In short: as §1
# [26] = molecular target: Neu5Ac(a2-6)Gal(b1-4)GlcNAc(b1-3)Gal(b1-4)GlcNAc(b1-6)[Gal(b1-3)]GalNAc
# In short: as §1
# [27] = molecular target: Neu5Ac(a2-6)Gal(b1-4)GlcNAc(b1-3)Gal(b1-4)[Fuc(a1-3)]GlcNAc(b1-3)Gal(b1-4)[Fuc(a1-3)]GlcNAc
# In short: as §1
# [28] = molecular target: Neu5Ac(a2-6)Gal(b1-4)GlcNAc(b1-3)GalNAc
# In short: as §1
# [29] = molecular target: Neu5Ac(a2-6)Gal(b1-4)GlcNAc(b1-3)[Neu5Ac(a2-6)Gal(b1-4)GlcNAc(b1-6)]GalNAc
# In short: as §1
# [30] = molecular target: Neu5Ac(a2-6)Gal(b1-4)GlcNAc(b1-6)GalNAc
# In short: as §1
# [31] = molecular target: Neu5Ac(a2-6)Gal(b1-4)GlcNAc(b1-6)[Gal(b1-3)GlcNAc(b1-3)]Gal(b1-4)Glc
# In short: as §1
# [32] = molecular target: Neu5Ac(a2-6)Gal(b1-4)GlcNAc(b1-6)[Gal(b1-3)]GalNAc
# In short: as §1
# [33] = molecular target: Neu5Ac(a2-6)Gal(b1-4)GlcNAc6S
# In short: as §1
# Neu5Ac(a2-6)GalNAc = molecular target: Neu5Ac(a2-6)GalNAc
# In short: as §1
# [34] = molecular target: Neu5Ac(a2-6)GalNAc(b1-4)GlcNAc
# In short: as §1
# [35] = molecular target: Neu5Ac(a2-6)GalNAc(b1-4)GlcNAc6S
# In short: as §1
binder,measurement,setting,value
B1,glycan array binding signal (z-score),Neu5Ac(a2-6)Gal,-0.164
same,glycan array binding signal (z-score),[1],-0.017
same,glycan array binding signal (z-score),Neu5Ac(a2-6)Gal(b1-4)Glc,-0.217
same,glycan array binding signal (z-score),[2],-0.231
same,glycan array binding signal (z-score),[3],-0.214
same,glycan array binding signal (z-score),[4],-0.212
same,glycan array binding signal (z-score),[5],-0.217
same,glycan array binding signal (z-score),[6],-0.134
same,glycan array binding signal (z-score),[7],-0.186
same,glycan array binding signal (z-score),[8],-0.221
same,glycan array binding signal (z-score),[9],-0.094
same,glycan array binding signal (z-score),[10],-0.143
same,glycan array binding signal (z-score),[11],-0.151
same,glycan array binding signal (z-score),[12],-0.202
same,glycan array binding signal (z-score),[13],-0.017
same,glycan array binding signal (z-score),[14],-0.247
same,glycan array binding signal (z-score),[15],-0.157
same,glycan array binding signal (z-score),[16],-0.196
same,glycan array binding signal (z-score),[17],-0.246
same,glycan array binding signal (z-score),[18],-0.183
same,glycan array binding signal (z-score),[19],-0.116
same,glycan array binding signal (z-score),[20],-0.11
same,glycan array binding signal (z-score),[21],-0.071
same,glycan array binding signal (z-score),[22],-0.353
same,glycan array binding signal (z-score),[23],0.05
same,glycan array binding signal (z-score),[24],-0.238
same,glycan array binding signal (z-score),[25],-0.158
same,glycan array binding signal (z-score),[26],0.023
same,glycan array binding signal (z-score),[27],-0.125
same,glycan array binding signal (z-score),[28],-0.288
same,glycan array binding signal (z-score),[29],-0.137
same,glycan array binding signal (z-score),[30],-0.254
same,glycan array binding signal (z-score),[31],-0.13
same,glycan array binding signal (z-score),[32],-0.052
same,glycan array binding signal (z-score),[33],-0.225
same,glycan array binding signal (z-score),Neu5Ac(a2-6)GalNAc,-0.069
same,glycan array binding signal (z-score),[34],-0.232
same,glycan array binding signal (z-score),[35],-0.174

# Reference: the supplement of paper PMC8728848
